# From PubChem BioAssay AID995 (National Center for Advancing Translational Sciences (NCATS), 2007)
# In all, about 72,000 compounds went through this assay and about 710 (0.99%) were called active. Inconclusive means that the source gave no clear call. Such entries were picked first, then a sample of the others. The call rests on the fitted dose curve; in most records, active means well fitted inhibition curve with a large enough effect; inconclusive means small, poorly fitted or top-dose-only effect; inactive means no such curve, though single readings can be large or run the other way. No potency is given beside an inconclusive call; the fits are too rough.
# Test: qHTS Assay for Inhibitors of the ERK Signaling Pathway using a Homogeneous Screening Assay; further: nearly all actives have a fitted effect of over 55% in size
# Details: HEK293-V1b, vasopressin-stimulated pERK AlphaScreen; activity, negative = inhibition: at 57.5 µM (top of the series) unless noted
# Procedure, shortened: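 Overnight-seeded V1b-HEK293 cells in 1% FBS got compound, then vasopressin (25 nM final, 5 min, 37C), then lysis buffer. AlphaScreen detection of phospho-ERK; activity normalized to basal and full-stimulation controls.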
# On the % scale 0 is the no-effect control and ±100 the full control effect; potency means the concentration at half of the fitted maximal effect; tags describe the fitted curve by direction and shape.
Structure (SMILES),Potency,"activity, negative = inhibition"
COc1ccc(C(=O)c2ccc(O)cc2)c(O)c1O,"inconclusive [inhibitor, single point]",
COc1ccc(-c2coc3c(OC)c(OC)cc(O)c3c2=O)cc1,"inconclusive [inhibitor, partial curve]",
Clc1ccc(-c2nnc(-c3ccccc3Cl)o2)cc1,,inactive: 41.7%
CCOC(=O)c1c(NC(=O)c2csc(C)c2)sc(C(C)=O)c1C,"inconclusive [inhibitor, single point]",
COC1C=CO[C@@]2(C)Oc3c(C)c(O)c4c(O)c(c(C=NN5CCN(C)CC5)c(O)c4c3C2=O)NC(=O)/C(C)=C\C=CC(C)C(O)[C@@H](C)C(O)C(C)[C@H](OC(C)=O)C1C (stereo partly specified),"inconclusive [inhibitor, partial curve, poor fit]",
CCn1c(C(=O)N2CCC(C(=O)NCCCSC3CCCCC3)CC2)cc2sccc21,"inconclusive [inhibitor, single point]",
COc1ccccc1CC(=O)NCc1ccc2c(c1)OCO2,"inconclusive [inhibitor, single point]",
Cc1nc2cnc(N(C)C)nc2n(CCc2ccccc2)c1=O,"inconclusive [inhibitor, partial curve, poor fit]",
Cn1c(Cn2c(=O)sc3ccccc32)nnc1SCC(=O)NC1CCCCC1,"inconclusive [inhibitor, single point]",
O=S(=O)(c1ccccc1)c1nc(-c2cccs2)oc1NCCCn1ccnc1,"inconclusive [inhibitor, partial curve]",
N#Cc1nc(-c2cccs2)oc1N1CCN(c2ccccc2)CC1,,inactive: -16.5%
COC(=O)CCC(NC(=O)c1cc(-c2ccc3c(c2)OCCO3)oc1C)C(=O)OC (stereo unspecified),"inconclusive [inhibitor, single point]",
N=c1c(C(=O)NCc2ccco2)cc2c(=O)n3ccccc3nc2n1Cc1ccccc1,"inconclusive [inhibitor, partial curve]",
COCc1nnc(NC(=O)c2cccs2)s1,,inactive: -17.3%
COC(=O)c1[nH]c2cccc(C)c2c1NC(=O)CN1CCN(c2ccccc2OC)CC1,,inactive: -12%
O=C(O)/C=C(/c1ccccc1)C(F)(F)F,,inactive: 3.19%
CCN1CCCC1CN(Cc1cc2cc(C)ccc2[nH]c1=O)C(=O)Nc1ccccc1OC (stereo unspecified),"inconclusive [inhibitor, single point]",
COc1ccc(F)cc1S(=O)(=O)N1CCN(Cc2ccc3c(c2)OCO3)CC1,"inconclusive [inhibitor, single point]",
CCNc1ncc2nc(-c3ccc(Cl)cc3)c(=O)n(C[C@H]3CCCO3)c2n1,"inconclusive [inhibitor, partial curve, poor fit]",
Cn1cccc1C(=O)N1CCC2(CCCN(C(c3ccccc3)c3ccccc3)C2)CC1,"inconclusive [inhibitor, single point]",
O=C(Nc1cccc(F)c1)c1ccc2c(c1)OCO2,,inactive: -5.11%
COc1ccc(-c2nnc(NC(=O)c3ccc(S(=O)(=O)N4COCC4(C)C)cc3)o2)cc1,"inconclusive [inhibitor, full curve, poor fit]",

Structure (SMILES),Potency,"activity, negative = inhibition"
O=C(CSc1ncn(-c2ccccc2)n1)Nc1nc2c(s1)CCCC2,"inconclusive [inhibitor, partial curve]",
O=C(c1cc(-c2ccccc2)nc2ccccc12)N1CCN(c2ccccn2)CC1,"inconclusive [inhibitor, partial curve, poor fit]",
CNc1ncnc2c1ncn2[C@@H]1O[C@H](CO)[C@@H](O)[C@@H]1O,,inactive: 21.8% [at 25.7 µM]
c1ccc(Cn2nnc3c(Nc4ccc5c(c4)OCO5)nc(C4CC4)nc32)cc1,"inconclusive [inhibitor, single point]",
O=C(C1CCCO1)N1CCN(S(=O)(=O)c2cccc3nsnc23)CC1 (stereo unspecified),"inconclusive [inhibitor, single point]",
Cc1ccc2c(c1)NC(=O)C(CC(=O)NCCCN1CCN(c3cc(Cl)ccc3C)CC1)O2 (stereo unspecified),"inconclusive [inhibitor, single point]",
Cn1c(=O)[nH]c(=O)c2c1nc(N1CCCCC1)n2CCOc1ccccc1,"inconclusive [inhibitor, partial curve]",
CCOc1ccc(NC(=O)c2ccccc2OC)cc1,"inconclusive [inhibitor, single point]",
COc1ccc(NC(=O)CN2CCN(CC(=O)Nc3ccc4c(c3)OCO4)CC2)cc1,"inconclusive [inhibitor, single point]",
Cc1ccc(C2CC(C(F)(F)F)n3nc(C(=O)NCC4CCCO4)cc3N2)cc1 (stereo unspecified),,inactive: -17.1%
COC(=O)CS,,inactive: 26%
O=c1[nH]c2ccccc2n1CCCSCCCn1c(=O)[nH]c2ccccc21,active: 31.6 µM,
Cc1nc2sc(C)c(C)c2c(=O)[nH]1,"inconclusive [inhibitor, partial curve]",
CCC1=C2CC[C@H]3C(=O)N(C)C(=O)[C@H]3[C@H]2[C@@]2(Cc3ccccc3)C(=NCCc3c[nH]c4ccccc34)OC(=O)N2C1=O,"inconclusive [inhibitor, full curve, poor fit]",
CCCCOc1cc(C[C@@H]2CNC(=O)N2)ccc1OC,"inconclusive [inhibitor, full curve]",
O=S(=O)(c1ccc2c(c1)OCCO2)N1CCC(c2nc3ccc(Cl)cc3[nH]2)CC1,"inconclusive [inhibitor, single point]",
Cn1cccc1C(=O)N1CCC2(CC1)CCN(c1ncccn1)CC2,"inconclusive [inhibitor, single point]",
Cc1ccc(NC(=O)CC2C(=O)NC3CCCCC3N2C(=O)c2ccc(F)cc2)cc1C (stereo unspecified),"inconclusive [inhibitor, full curve, poor fit]",
O=C(c1cc(-c2cccc(O)c2)on1)N1CCc2ccccc2C1,"inconclusive [inhibitor, single point]",
O=C(C1CC1)N1CCN=C1SCc1cccc(F)c1,,inactive: 31.4%
O=C(c1cc(-c2ccccn2)nc2c(Cl)cccc12)N1CCN(C(=O)C2CCCO2)CC1 (stereo unspecified),"inconclusive [inhibitor, partial curve]",
COC(=O)CCCCCN1C(=O)NC(CC2CC2)C(C(=O)OCc2ccccc2)=C1C (stereo unspecified),"inconclusive [inhibitor, partial curve, poor fit]",

Structure (SMILES),Potency,"activity, negative = inhibition"
CCC(C)Nc1nc2c(c(=O)n(C)c(=O)n2C)n1Cc1cccc(C)c1 (stereo unspecified),"inconclusive [inhibitor, single point]",
Cc1cc(NC(=O)CSc2nnc(COc3cccc(C)c3C)n2Cc2ccco2)no1,,inactive: -8.11%
CCOC(=O)c1sc(SCC(=O)Nc2ccc(N(C)C)cc2)nc1N,"inconclusive [inhibitor, single point]",
O=C(NCc1ccco1)c1ccc(S(=O)(=O)c2cccc(S(=O)(=O)N3CCOCC3)c2)cc1,"inconclusive [inhibitor, partial curve]",
C[C@@]1(CO)[C@H](O)CC[C@]2(C)[C@@H]1CC[C@H]1C[C@H]3C[C@]12CC[C@]3(O)COC(=O)CN,,inactive: 6.31% [at 11.5 µM]
C[N+](C)(N)CCC[N+](C)(C)N,,inactive: -0.0824% [at 11.5 µM]
CCN(CC)c1ccc(/C=N/n2nnnc2N)c(O)c1,,inactive: -13.9%
COc1cccc(-c2cc(C(=O)Nn3cnnc3)c3ccccc3n2)c1,,inactive: -26.9%
CC(C)NC(=O)N1CCCC2(CCN(C(=O)c3ccncc3)CC2)C1,,inactive: 8.02%
O=C(CCCCn1c(=O)[nH]c2ccccc2c1=O)N1CCN(c2cccc(C(F)(F)F)c2)CC1,"inconclusive [inhibitor, single point]",
CN(C)CC/C=C1\c2ccccc2COc2ccccc21,inactive,
O=C(Nc1ccc(Cl)cc1)Nc1ccccc1C(=O)NCc1ccco1,"inconclusive [inhibitor, single point]",
N#Cc1nc(-c2ccc(OCc3ccc(Cl)cc3)cc2)oc1NCc1cccnc1,"inconclusive [inhibitor, single point]",
CCN(CC)C(=O)CSc1nc2cccnc2n1-c1ccccc1OC,"inconclusive [inhibitor, partial curve]",
Cc1cc(=O)[nH]c(Nc2c(C)n(C)n(-c3ccccc3)c2=O)n1,"inconclusive [inhibitor, single point]",
Cn1c(=O)c2c(nc(NCCc3ccccc3)n2Cc2ccccc2)n(C)c1=O,"inconclusive [inhibitor, single point]",
CCCCn1nnc(NC(=O)Cc2ccc(Cl)cc2)n1,"inconclusive [inhibitor, single point]",
CCc1nccn1S(=O)(=O)c1ccc(OC)c(OC)c1,"inconclusive [inhibitor, single point]",
Cc1cccc(NCc2ccccc2O)c1C,"inconclusive [inhibitor, single point]",
CCOC(=O)N1CCC(N2C(=O)c3ccc(C(=O)NCc4ccc(F)cc4)cc3C2=O)CC1,"inconclusive [inhibitor, single point]",
CCN(CC)c1ccc(CN(C(=O)c2ccco2)C2CCS(=O)(=O)C2)cc1 (stereo unspecified),"inconclusive [inhibitor, partial curve]",
Cc1sc(NC(=O)c2ccco2)c(C(c2cccnc2)N2CCN(c3ccc(F)cc3)CC2)c1C (stereo unspecified),"inconclusive [inhibitor, single point]",
